Where a name gives a salt, the structure may show the parent alone.
These molecules were tested against isolated recombinant JAK1 kinase domain (Homo sapiens (Human), UniProt P23458). Settings: read-out: JAK1 Ki.

`O=C(N[C@H]1CN2CCC1CC2)c1ccc(Nc2nc3c(C4=CCN(C(=O)CCC(F)(F)F)CC4)cccn3n2)cc1` [Example 2-469, N-[(3R)-quinuclidin-3-yl]-4-[[8-[1-(4,4,4-trifluorobutanoyl)-3,6-dihydro-2H-pyridin-4-yl]-[1,2,4]triazolo[1,5-a]pyridin-2-yl]amino]benzamide] was tested, and the Ki was 0.68 nM.

Same assay, conditions: read-out: JAK1 Ki; isolated recombinant JAK1 kinase domain, 25 μM ATP

`O=C(N[C@H]1[C@@H]2CNC[C@@H]21)c1ccc(Nc2nc3c(C4=CCN(C(=O)CCC(F)(F)F)CC4)cccn3n2)cc1` [Example 2-454, N-[(1R,5S)-3-azabicyclo[3.1.0]hexan-6-yl]-4-[[8-[1-(4,4,4-trifluorobutanoyl)-3,6-dihydro-2H-pyridin-4-yl]-[1,2,4]triazolo[1,5-a]pyridin-2-yl]amino]benzamide] and `CN1CCC(NC(=O)c2ccc(Nc3nc4c(C5=CCN(C(=O)CCC(F)(F)F)CC5)cccn4n3)cc2)C1` (centres unmarked) [Example 2-459, N-(1-methylpyrrolidin-3-yl)-4-[[8-[1-(4,4,4-trifluorobutanoyl)-3,6-dihydro-2H-pyridin-4-yl]-[1,2,4]triazolo[1,5-a]pyridin-2-yl]amino]benzamide] are within 1.5-fold of each other in Ki: 0.57 nM for the first, 0.61 nM for the second.

`O=C(NCCN1CCCCC1)c1ccc(Nc2nc3c(C4=CCN(C(=O)CCC(F)(F)F)CC4)cccn3n2)cc1` [Example 2-455, N-[2-(1-piperidyl)ethyl]-4-[[8-[1-(4,4,4-trifluorobutanoyl)-3,6-dihydro-2H-pyridin-4-yl]-[1,2,4]triazolo[1,5-a]pyridin-2-yl]amino]benzamide] and `O=C(NCCN1CCCC1)c1ccc(Nc2nc3c(C4=CCN(C(=O)CCC(F)(F)F)CC4)cccn3n2)cc1` [Example 2-466, N-(2-pyrrolidin-1-ylethyl)-4-[[8-[1-(4,4,4-trifluorobutanoyl)-3,6-dihydro-2H-pyridin-4-yl]-[1,2,4]triazolo[1,5-a]pyridin-2-yl]amino]benzamide] are within 1.5-fold of each other in Ki: 1.23 nM for the first, 0.97 nM for the second.

`O=C(CCC(F)(F)F)N1CC=C(c2cccn3nc(Nc4ccc(C(=O)N5CCC(c6ccncc6)CC5)cc4)nc23)CC1` [Example 2-456, 4,4,4-trifluoro-1-[4-[2-[4-[4-(4-pyridyl)piperidine-1-carbonyl]anilino]-[1,2,4]triazolo[1,5-a]pyridin-8-yl]-3,6-dihydro-2H-pyridin-1-yl]butan-1-one] and `Cc1cccc(C2CCN(C(=O)c3ccc(Nc4nc5c(C6=CCN(C(=O)CCC(F)(F)F)CC6)cccn5n4)cc3)CC2)n1` [Example 2-468, 4,4,4-trifluoro-1-[4-[2-[4-[4-(6-methyl-2-pyridyl)piperidine-1-carbonyl]anilino]-[1,2,4]triazolo[1,5-a]pyridin-8-yl]-3,6-dihydro-2H-pyridin-1-yl]butan-1-one] are within 1.5-fold of each other in Ki: 0.92 nM for the first, 0.69 nM for the second.

Going from `CN1CCN(C(=O)c2ccc(Nc3nc4c(C5=CCN(C(=O)CCC(F)(F)F)CC5)cccn4n3)cc2)C(C(=O)N(C)C)C1` (centres unmarked) [Example 2-457, N,N,4-trimethyl-1-[4-[[8-[1-(4,4,4-trifluorobutanoyl)-3,6-dihydro-2H-pyridin-4-yl]-[1,2,4]triazolo[1,5-a]pyridin-2-yl]amino]benzoyl] piperazine-2-carboxamide] to `CN(C)C1CCN(C(=O)c2ccc(Nc3nc4c(C5=CCN(C(=O)CCC(F)(F)F)CC5)cccn4n3)cc2)C1` (centres unmarked) [Example 2-464, 1-[4-[2-[4-[3-(dimethylamino)pyrrolidine-1-carbonyl]anilino]-[1,2,4]triazolo[1,5-a]pyridin-8-yl]-3,6-dihydro-2H-pyridin-1-yl]-4,4,4-trifluoro-butan-1-one], the Ki falls from 2.59 nM to 1.08 nM (2.4-fold). The second binds more tightly here.

`CN(Cc1ccc2ncccc2c1)C(=O)c1ccc(Nc2nc3c(C4=CCN(C(=O)CCC(F)(F)F)CC4)cccn3n2)cc1` [Example 2-460, N-methyl-N-(6-quinolylmethyl)-4-[[8-[1-(4,4,4-trifluorobutanoyl)-3,6-dihydro-2H-pyridin-4-yl]-[1,2,4]triazolo[1,5-a]pyridin-2-yl]amino]benzamide] and `Cc1cccnc1CN(C)C(=O)c1ccc(Nc2nc3c(C4=CCN(C(=O)CCC(F)(F)F)CC4)cccn3n2)cc1` [Example 2-476, N-methyl-N-[(3-methyl-2-pyridyl)methyl]-4-[[8-[1-(4,4,4-trifluorobutanoyl)-3,6-dihydro-2H-pyridin-4-yl]-[1,2,4]triazolo[1,5-a]pyridin-2-yl]amino]benzamide] are within 1.5-fold of each other in Ki: 0.93 nM for the first, 0.92 nM for the second.

`CC1CCCN(C2CCN(C(=O)c3ccc(Nc4nc5c(C6=CCN(C(=O)CCC(F)(F)F)CC6)cccn5n4)cc3)CC2)C1` (centres unmarked) [Example 2-461, 4,4,4-trifluoro-1-[4-[2-[4-[4-(3-methyl-1-piperidyl)piperidine-1-carbonyl]anilino]-[1,2,4]triazolo[1,5-a]pyridin-8-yl]-3,6-dihydro-2H-pyridin-1-yl]butan-1-one] and `CN1CCN(C(=O)C2CCN(C(=O)c3ccc(Nc4nc5c(C6=CCN(C(=O)CCC(F)(F)F)CC6)cccn5n4)cc3)CC2)CC1` [Example 2-475, 4,4,4-trifluoro-1-[4-[2-[4-[4-(4-methylpiperazine-1-carbonyl)piperidine-1-carbonyl]anilino]-[1,2,4]triazolo[1,5-a]pyridin-8-yl]-3,6-dihydro-2H-pyridin-1-yl]butan-1-one] are within 1.5-fold of each other in Ki: 0.84 nM for the first, 0.75 nM for the second.

`O=C(CCC(F)(F)F)N1CC=C(c2cccn3nc(Nc4ccc(C(=O)N5CCN(CCn6ccnc6)CC5)cc4)nc23)CC1` [Example 2-462, 4,4,4-trifluoro-1-[4-[2-[4-[4-(2-imidazol-1-ylethyl)piperazine-1-carbonyl]anilino]-[1,2,4]triazolo[1,5-a]pyridin-8-yl]-3,6-dihydro-2H-pyridin-1-yl]butan-1-one] and `O=C(CCC(F)(F)F)N1CC=C(c2cccn3nc(Nc4ccc(C(=O)N5CCN(CCN6CCOCC6)CC5)cc4)nc23)CC1` [Example 2-474, 4,4,4-trifluoro-1-[4-[2-[4-[4-(2-morpholinoethyl)piperazine-1-carbonyl]anilino]-[1,2,4]triazolo[1,5-a]pyridin-8-yl]-3,6-dihydro-2H-pyridin-1-yl]butan-1-one] are within 1.5-fold of each other in Ki: 0.87 nM for the first, 1 nM for the second.

`CC(C)N1CCC(CN(C)C(=O)c2ccc(Nc3nc4c(C5=CCN(C(=O)CCC(F)(F)F)CC5)cccn4n3)cc2)C1` (centres unmarked) [Example 2-463, N-[(1-isopropylpyrrolidin-3-yl)methyl]-N-methyl-4-[[8-[1-(4,4,4-trifluorobutanoyl)-3,6-dihydro-2H-pyridin-4-yl]-[1,2,4]triazolo[1,5-a]pyridin-2-yl]amino]benzamide] and `CN1CCC(CNC(=O)c2ccc(Nc3nc4c(C5=CCN(C(=O)CCC(F)(F)F)CC5)cccn4n3)cc2)CC1` [Example 2-467, N-[(1-methyl-4-piperidyl)methyl]-4-[[8-[1-(4,4,4-trifluorobutanoyl)-3,6-dihydro-2H-pyridin-4-yl]-[1,2,4]triazolo[1,5-a]pyridin-2-yl]amino]benzamide] are within 1.5-fold of each other in Ki: 1.16 nM for the first, 1.64 nM for the second.

`O=C(NCCN1CCOCC1)c1ccc(Nc2nc3c(C4=CCN(C(=O)CCC(F)(F)F)CC4)cccn3n2)cc1` [Example 2-465, N-(2-morpholinoethyl)-4-[[8-[1-(4,4,4-trifluorobutanoyl)-3,6-dihydro-2H-pyridin-4-yl]-[1,2,4]triazolo[1,5-a]pyridin-2-yl]amino]benzamide] and `O=C(NCCc1ccccn1)c1ccc(Nc2nc3c(C4=CCN(C(=O)CCC(F)(F)F)CC4)cccn3n2)cc1` [Example 2-478, N-[2-(2-pyridyl)ethyl]-4-[[8-[1-(4,4,4-trifluorobutanoyl)-3,6-dihydro-2H-pyridin-4-yl]-[1,2,4]triazolo[1,5-a]pyridin-2-yl]amino]benzamide] are within 1.5-fold of each other in Ki: 0.52 nM for the first, 0.76 nM for the second.

Compared with `CNC(=O)C1CN(C(=O)c2ccc(Nc3nc4c(C5=CCN(C(=O)CCC(F)(F)F)CC5)cccn4n3)cc2)CCN1CCc1ccccc1` (centres unmarked) [Example 2-470, N-methyl-1-(2-phenylethyl)-4-[4-[[8-[1-(4,4,4-trifluorobutanoyl)-3,6-dihydro-2H-pyridin-4-yl]-[1,2,4]triazolo[1,5-a]pyridin-2-yl]amino]benzoyl] piperazine-2-carboxamide], `CN(Cc1ccccc1)C1CCCN(C(=O)c2ccc(Nc3nc4c(C5=CCN(C(=O)CCC(F)(F)F)CC5)cccn4n3)cc2)C1` (centres unmarked) [Example 2-472, 1-[4-[2-[4-[3-[benzyl(methyl)amino]piperidine-1-carbonyl]anilino]-[1,2,4]triazolo[1,5-a]pyridin-8-yl]-3,6-dihydro-2H-pyridin-1-yl]-4,4,4-trifluoro-butan-1-one] is 2.4-fold higher in Ki: 0.75 nM for the first, 1.82 nM for the second. The first binds more tightly here.

Going from `CN(C(=O)c1ccc(Nc2nc3c(C4=CCN(C(=O)CCC(F)(F)F)CC4)cccn3n2)cc1)C1CCN(Cc2ccccc2)C1` (centres unmarked) [Example 2-473, N-(1-benzylpyrrolidin-3-yl)-N-methyl-4-[[8-[1-(4,4,4-trifluorobutanoyl)-3,6-dihydro-2H-pyridin-4-yl]-[1,2,4]triazolo[1,5-a]pyridin-2-yl]amino]benzamide] to `CN(Cc1ccc2c(c1)CCCN2C)C(=O)c1ccc(Nc2nc3c(C4=CCN(C(=O)CCC(F)(F)F)CC4)cccn3n2)cc1` [Example 2-477, N-methyl-N-[(1-methyl-3,4-dihydro-2H-quinolin-6-yl)methyl]-4-[[8-[1-(4,4,4-trifluorobutanoyl)-3,6-dihydro-2H-pyridin-4-yl]-[1,2,4]triazolo[1,5-a]pyridin-2-yl]amino]benzamide], the Ki falls from 2.61 nM to 1.57 nM (1.7-fold).

Compared with `CN1CCC(N(C)C(=O)c2ccc(Nc3nc4c(C5=CCN(C(=O)N6CC(C)(C)C6)CCC5)cccn4n3)cc2)CC1` [Example 2-480, 4-[[8-[1-(3,3-dimethylazetidine-1-carbonyl)-2,3,4,7-tetrahydroazepin-5-yl]-[1,2,4]triazolo[1,5-a]pyridin-2-yl]amino]-N-methyl-N-(1-methyl-4-piperidyl)benzamide], `CN1CCC(N(C)C(=O)c2ccc(Nc3nc4c(C5=CCN(C(=O)N6CC(C)(C)C6)C5)cccn4n3)cc2)CC1` [Example 2-481, 4-[[8-[1-(3,3-dimethylazetidine-1-carbonyl)-2,5-dihydropyrrol-3-yl]-[1,2,4]triazolo[1,5-a]pyridin-2-yl]amino]-N-methyl-N-(1-methyl-4-piperidyl)benzamide] is 60-fold higher in Ki: 4.46 nM for the first, 266 nM for the second. The first binds more tightly here.

`NCC1(c2ccccc2)CCN(c2cccn3nc(NC(=O)C4CC4)nc23)CC1` [Example 3-1, N-[8-[4-(aminomethyl)-4-phenyl-1-piperidyl]-[1,2,4]triazolo[1,5-a]pyridin-2-yl]cyclopropane carboxamide; hydrochloride] showed a Ki of 108 nM.

Source: patent US9873709B2 (priority 2013, dated 2018)
